PubChem BioAssay AID493208 (National Center for Advancing Translational Sciences (NCATS), 2011)
Hit rate of the full screen: of about 44,000 compounds, about 340 (0.77%) were called active. About 5% were inconclusive and are not listed. Calls come from the whole dose curve; as a rule, active = well fitted inhibition curve with a large enough effect; inconclusive = small, poorly fitted or top-dose-only effect; inactive = flat fitted curve, though single readings scatter. Some of the results follow.

experiment: Acumen qHTS Assay for Inhibitors of the mTORC1 Signaling Pathway in MEF (Tsc2-/-, p53-/-) Cells: Sytravon; details: phospho-rpS6 immunofluorescence/PI, 24 h; series mostly up to 38.3 µM; activity change, negative = inhibition: at the top concentration; note: nearly all actives have a fitted effect of over 50% in size;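 for activity change, negative = inhibition: plate controls were DMSO for no effect and rapamycin for full effect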
Method in brief: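 Tsc2-/-, p53-/- mouse embryonic fibroblasts (empty-vector line) exposed to compound 24 hrs at 37 C, fixed, immunostained for phospho-rpS6 and counterstained with propidium iodide. Acumen laser scanning gives % positive cells from Alexa 488/PI ratio, thresholded using 7.5 nM rapamycin; PI count gives viability.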
Potency is the fitted concentration of half-maximal effect.

Structure (SMILES) | activity change, negative = inhibition | Potency
CCOC(=O)c1c(S(=O)(=O)N2CCC(C(=O)Nc3ncccc3C)CC2)c(C)n(C)c1C | inactive: -6.26% | –
CCOC(=O)c1cc(-c2ccc(OC)cc2)n(CCC(=O)NC2CCCCC2)c1C | inactive: -6.24% | –
Cc1c(C(=O)OC2CCCCC2)[nH]c2c1C(=O)CC(c1ccc(C(C)(C)C)cc1)C2 (centres undefined) | inactive: -23.5% | –
CCC(=O)N1CCc2cc(Br)cc(S(=O)(=O)CCC(=O)N3CCN(c4cc(C)ccc4C)CC3)c21 | inactive: -0.537% | –
CCCc1nnc(NC(=O)c2cc(=O)c3cc(C)c(C)cc3o2)s1 | inactive: -4.94% | –
CCN(CC)S(=O)(=O)c1ccc2c(c1)nc(CN(C)C(=O)Nc1ccc(C)c(F)c1)n2C | inactive: 11.6% | –
O=C(OCC1CCCO1)c1ccc2c(c1)N(Cc1ccccc1)C(=O)c1ccccc1S2(=O)=O (centres undefined) | inactive: 0.942% | –
CCc1ccccc1NC(=O)CN1C(=O)CCSc2ccc(S(=O)(=O)N3CCCC3)cc21 | inactive: -4.06% | –
CCOC(=O)C1CCCN(C(=O)Cn2ncc3c4ccccc4n(Cc4ccccc4)c3c2=O)C1 (centres undefined) | inactive: -6.33% | –
COC(=O)c1ccc(CSc2nc3c([nH]c4ccccc43)c(=O)n2-c2cccc(Cl)c2)o1 | inactive: -2.45% | –
CCc1ccccc1NC(=O)C(C)n1c(=O)cc(C)c2c(C)nn(-c3ccccc3)c21 (centres undefined) | inactive: 0% | –
COc1ccccc1NC(=O)c1cc2c(C)nn(-c3ccccc3)c2s1 | inactive: -4.57% | –
COc1ccc(N2CCN(C(=O)COCc3cc(-c4ccc5c(c4)OCO5)on3)CC2)cc1 | inactive: -8.82% | –
COc1ccc(NC(=O)c2sc3nc(C(F)(F)F)cc(C)c3c2N)cc1OC | inactive: -0.59% | –
Cc1ccc(NC(=O)c2nc(S(C)(=O)=O)ncc2N(Cc2ccco2)Cc2cccs2)cc1C | inactive: -1.81% | –
Cc1cc(C)cc(Oc2nc3ccccn3c(=O)c2/C=C(\C#N)c2nc3ccccc3s2)c1 | inactive: -4.74% | –
O=C(NC1CCN(Cc2ccccc2)CC1)c1ccc(Cn2c(=O)c3ccccc3n(Cc3ccc(F)cc3)c2=O)cc1 | – | active: 3.29 µM
Cn1c(=O)cc(SCC(=O)N2CCN(c3ccccc3F)CC2)c2ccc(Cl)cc21 | inactive: 3% | –
Cc1ccccc1OCCSc1nc2ccc(NC(=O)c3cccs3)cc2s1 | inactive: -6.15% | –
COCCCNC(=O)CSc1nc2cc3c(cc2c(=O)n1CCCC(=O)NCc1ccc2c(c1)OCO2)OCO3 | inactive: 0.119% | –

Structure (SMILES) | activity change, negative = inhibition | Potency
CCn1nc(-c2ccccc2)c(-c2ccccc2)c(C(=O)Nc2ccc(NC(C)=O)cc2)c1=O | inactive: 6.36% | –
Cc1ccc(Cn2ccnc2SCC(=O)Nc2nnc(C)s2)cc1 | inactive: -14.5% | –
COc1ccc(OC)c(NC(=O)Nc2c(C)n(C)n(-c3ccccc3)c2=O)c1 | inactive: -0.662% | –
Cc1ccc(-c2csc(=Nc3ccccc3)n2Cc2ccc3c(c2)OCO3)cc1 | inactive: -13.8% | –
O=C(NCCN1CCCCC1)c1ccc(Cn2c(SCc3ccccc3)nc3cccnc32)cc1 | inactive: -6.22% | –
COCCCn1c(-c2ccc(S(=O)(=O)N3CCOCC3)cc2)csc1=Nc1ccccc1 | inactive: -3.84% | –
CC1(c2ccc(Cl)cc2)CC(C)(C)N(C(=O)c2cccc(F)c2)c2ccccc21 (centres undefined) | inactive: -8.11% | –
O=C(Cc1ccccc1)Nc1sc2c(c1C(=O)Nc1ccc(Br)cc1)CCCC2 | inactive: -12.7% | –
Cc1ccc(C(=O)NC2(C(F)(F)F)N=C(c3ccccc3)N(Cc3ccccc3)C2=O)cc1 (centres undefined) | inactive: 5.39% | –
Cc1ccc(C(=O)Oc2cc(-c3ccc4c(c3)OCO4)cc(=O)c3c(C)oc(C)c23)cc1 | inactive: -3.21% | –
Cc1ccc(NC(=O)C2CCN(c3nc(-c4ccc(C(C)C)cc4)no3)CC2)c(Cl)c1 | inactive: -0.192% | –
Cc1ccccc1NC(=O)CSc1nc(-c2ccco2)nc2cc(=O)[nH]n12 | inactive: 3.15% | –
CC(=O)c1ccc(NS(=O)(=O)c2ccc(-n3cccn3)cc2)cc1 | inactive: -2.09% | –
CCOc1ccc(CNC(=O)c2cc(-c3ccc(Cl)s3)nc3ccccc23)cc1 | inactive: -15.3% | –
O=C(c1ccc2c(c1)N(Cc1ccc(Cl)cc1)C(=O)c1ccccc1S2=O)N1CCCCC1 (centres undefined) | inactive: -2.75% | –
COc1ccccc1NC(=O)Cn1c(=O)n(CC(=O)NCc2ccccc2Cl)c(=O)c2sccc21 | inactive: -1.6% | –
COc1ccc(C(=O)Oc2c(Sc3ccc(C)cc3)c(C)nn2C(C)(C)C)cc1OC | inactive: 0% | –
Cc1cccc(NC(=O)CCNS(=O)(=O)c2ccc3c(c2)CCN3C(=O)C2CC2)c1 | inactive: -3.69% | –
CCOC(=O)C1CCN(C(c2ccc(C)cc2)c2c(O)cc(C)n(CCOC)c2=O)CC1 (centres undefined) | inactive: 4.04% | –
CCOc1ccc(-c2cc(CCCC(=O)NCCc3cc(OC)c(OC)c(OC)c3)no2)cc1 | inactive: 0.999% | –

Structure (SMILES) | activity change, negative = inhibition | Potency
Cc1ccc(NC(=O)Cn2cc(C(=O)C3CCCCC3)c3ccccc32)cc1 | inactive: -0.951% | –
COc1ccc(CCNC(=O)CCCn2nc(C)c3sc4ccccc4c3c2=O)c(OC)c1 | inactive: -0.286% | –
CCOc1ccc(NC(=O)Cn2c(=O)n(CCCS(=O)(=O)C3CCCCC3)c(=O)c3ccccc32)cc1 | inactive: -1.34% | –
Cc1ccc(C(=O)Nc2ccccc2)cc1S(=O)(=O)Nc1ccccc1 | inactive: 1.27% | –
Cc1ccc(NC(=O)C2CCC(CNS(=O)(=O)c3cccc4nsnc34)CC2)c(Cl)c1 (centres undefined) | inactive: -5.75% | –
COc1ccc(N2CCN(C(=O)C3CCN(S(=O)(=O)c4cn(C)cn4)CC3)CC2)cc1 | inactive: 0% | –
Cc1ccc(OC(=O)CSc2nnc(-c3ccc4c(c3)OCO4)o2)cc1 | inactive: -0.319% | –
Cc1cccc(N(C)C(=O)Cc2c(C(=O)O)[nH]c3ccccc23)c1 | inactive: 0% | –
Cc1ccc(-n2ncc3c(N4CCC(Cc5ccccc5)CC4)ncnc32)cc1C | inactive: 1.9% | –
CCOc1ccc(-c2nc(CSCC(=O)NCc3ccc(C)cc3)c(C)o2)cc1 | inactive: -6.64% | –
COC(=O)c1cc(NC(=O)c2sc3ccccc3c2Cl)cc(C(=O)OC)c1 | inactive: 8.63% | –
Cc1cccc(N2CCN(c3ncnc4c3nc3n4CCCCC3)CC2C)c1 (centres undefined) | – | active: 9.27 µM
COc1ccc(CCNc2nc3cc(OC)c(OC)cc3c3nc(-c4ccccc4)nn23)cc1OC | inactive: -8.28% | –
COC(=O)c1cc2occc2n1CC(=O)Nc1ccc(C)cc1Cl | inactive: -0.801% | –
COc1ccc(-c2nn(-c3ccc(C)cc3)c3c2cnc2ccc(C)cc23)cc1OC | inactive: -2.47% | –
Cc1ccc(C)c(-n2nnc(-c3nc(-c4ccccc4C)no3)c2C)c1 | inactive: 5.23% | –
CCCN1CCN(CCCNC(=O)C(CC)n2nc(C)n3c(cc4occc43)c2=O)CC1 (centres undefined) | inactive: -0.0351% | –
Cc1coc2cc3oc(=O)c(CCC(=O)NCc4ccccc4Cl)c(C)c3cc12 | inactive: 1.08% | –
O=C(NCC(c1cccnc1)N1CCN(Cc2ccccc2)CC1)C(=O)Nc1cccc(Cl)c1 (centres undefined) | inactive: 1.73% | –
